# Measured values as given in PMC9911399, “Two distinct binding modes provide the RNA-binding protein RbFox with extraordinary sequence specificity”.
# Substitutions are numbered along the chain they refer to; changes in the protein carry UniProt numbers. This is one part of the list.
# B1: GAAUCCU (DNA:RNA)
# RNA: GGGAGACCGGAAUUCAGAUUGUCCGAAUCCUUUAAAUCCCGUCGUAGCCACCA
# DNA 1: CAATCTGAATTCCGGTCTCCC
# DNA 2: TGGTGGCTACGACGGGATT
# B2: AGUAGGG (DNA:RNA)
# RNA: GGGAGACCGGAAUUCAGAUUGUCCAGUAGGGUUAAAUCCCGUCGUAGCCACCA
# DNA 1: CAATCTGAATTCCGGTCTCCC
# DNA 2: TGGTGGCTACGACGGGATT
# B3: ACACACC (DNA:RNA)
# RNA: B1 RNA with G25A, A26C, U28C, C29A, U31C
# DNA 1: CAATCTGAATTCCGGTCTCCC
# DNA 2: TGGTGGCTACGACGGGATT
# B4: GGACAUU (DNA:RNA)
# RNA: B1 RNA with A26G, U28C, C29A, C30U
# DNA 1: CAATCTGAATTCCGGTCTCCC
# DNA 2: TGGTGGCTACGACGGGATT
# B5: UACAUCU (DNA:RNA)
# RNA: B1 RNA with G25U, A27C, U28A, C29U
# DNA 1: CAATCTGAATTCCGGTCTCCC
# DNA 2: TGGTGGCTACGACGGGATT
# B6: GGCGGGU (DNA:RNA)
# RNA: B2 RNA with A25G, U27C, A28G, G31U
# DNA 1: CAATCTGAATTCCGGTCTCCC
# DNA 2: TGGTGGCTACGACGGGATT
# B7: CCCCGAG (DNA:RNA)
# RNA: B2 RNA with A25C, G26C, U27C, A28C, G30A
# DNA 1: CAATCTGAATTCCGGTCTCCC
# DNA 2: TGGTGGCTACGACGGGATT
# B8: AAGACCC (DNA:RNA)
# RNA: B1 RNA with G25A, A27G, U28A, U31C
# DNA 1: CAATCTGAATTCCGGTCTCCC
# DNA 2: TGGTGGCTACGACGGGATT
# B9: AUGGCUG (DNA:RNA)
# RNA: B2 RNA with G26U, U27G, A28G, G29C, G30U
# DNA 1: CAATCTGAATTCCGGTCTCCC
# DNA 2: TGGTGGCTACGACGGGATT
# B10: UUGGCCA (DNA:RNA)
# RNA: B1 RNA with G25U, A26U, A27G, U28G, U31A
# DNA 1: CAATCTGAATTCCGGTCTCCC
# DNA 2: TGGTGGCTACGACGGGATT
# B11: CAAUGCA (DNA:RNA)
# RNA: B1 RNA with G25C, C29G, U31A
# DNA 1: CAATCTGAATTCCGGTCTCCC
# DNA 2: TGGTGGCTACGACGGGATT
# B12: GUUUUUC (DNA:RNA)
# RNA: B1 RNA with A26U, A27U, C29U, C30U, U31C
# DNA 1: CAATCTGAATTCCGGTCTCCC
# DNA 2: TGGTGGCTACGACGGGATT
# B13: GGCCUCA (DNA:RNA)
# RNA: B1 RNA with A26G, A27C, U28C, C29U, U31A
# DNA 1: CAATCTGAATTCCGGTCTCCC
# DNA 2: TGGTGGCTACGACGGGATT
# B14: GAUAGGC (DNA:RNA)
# RNA: B2 RNA with A25G, G26A, G31C
# DNA 1: CAATCTGAATTCCGGTCTCCC
# DNA 2: TGGTGGCTACGACGGGATT
# B15: CUUUUGA (DNA:RNA)
# RNA: B2 RNA with A25C, G26U, A28U, G29U, G31A
# DNA 1: CAATCTGAATTCCGGTCTCCC
# DNA 2: TGGTGGCTACGACGGGATT
# B16: AACUGGC (DNA:RNA)
# RNA: B2 RNA with G26A, U27C, A28U, G31C
# DNA 1: CAATCTGAATTCCGGTCTCCC
# DNA 2: TGGTGGCTACGACGGGATT
# B17: ACGUCUG (DNA:RNA)
# RNA: B2 RNA with G26C, U27G, A28U, G29C, G30U
# DNA 1: CAATCTGAATTCCGGTCTCCC
# DNA 2: TGGTGGCTACGACGGGATT
# B18: CGUAGGA (DNA:RNA)
# RNA: B2 RNA with A25C, G31A
# DNA 1: CAATCTGAATTCCGGTCTCCC
# DNA 2: TGGTGGCTACGACGGGATT
# B19: AGCACCG (DNA:RNA)
# RNA: B2 RNA with U27C, G29C, G30C
# DNA 1: CAATCTGAATTCCGGTCTCCC
# DNA 2: TGGTGGCTACGACGGGATT
# B20: AAUUCGA (DNA:RNA)
# RNA: B2 RNA with G26A, A28U, G29C, G31A
# DNA 1: CAATCTGAATTCCGGTCTCCC
# DNA 2: TGGTGGCTACGACGGGATT
# B21: CUAAUUG (DNA:RNA)
# RNA: B2 RNA with A25C, G26U, U27A, G29U, G30U
# DNA 1: CAATCTGAATTCCGGTCTCCC
# DNA 2: TGGTGGCTACGACGGGATT
# B22: UCGAAGU (DNA:RNA)
# RNA: B2 RNA with A25U, G26C, U27G, G29A, G31U
# DNA 1: CAATCTGAATTCCGGTCTCCC
# DNA 2: TGGTGGCTACGACGGGATT
# B23: CAGCGAU (DNA:RNA)
# RNA: B1 RNA with G25C, A27G, U28C, C29G, C30A
# DNA 1: CAATCTGAATTCCGGTCTCCC
# DNA 2: TGGTGGCTACGACGGGATT
# B24: CGGAAUC (DNA:RNA)
# RNA: B2 RNA with A25C, U27G, G29A, G30U, G31C
# DNA 1: CAATCTGAATTCCGGTCTCCC
# DNA 2: TGGTGGCTACGACGGGATT
# B25: CUAUGAA (DNA:RNA)
# RNA: B1 RNA with G25C, A26U, C29G, C30A, U31A
# DNA 1: CAATCTGAATTCCGGTCTCCC
# DNA 2: TGGTGGCTACGACGGGATT
# B26: UUUCCUA (DNA:RNA)
# RNA: B2 RNA with A25U, G26U, A28C, G29C, G30U, G31A
# DNA 1: CAATCTGAATTCCGGTCTCCC
# DNA 2: TGGTGGCTACGACGGGATT
# B27: CACAUAA (DNA:RNA)
# RNA: B2 RNA with A25C, G26A, U27C, G29U, G30A, G31A
# DNA 1: CAATCTGAATTCCGGTCTCCC
# DNA 2: TGGTGGCTACGACGGGATT
# B28: UGAUACC (DNA:RNA)
# RNA: B1 RNA with G25U, A26G, C29A, U31C
# DNA 1: CAATCTGAATTCCGGTCTCCC
# DNA 2: TGGTGGCTACGACGGGATT
# B29: ACUUAAC (DNA:RNA)
# RNA: B2 RNA with G26C, A28U, G29A, G30A, G31C
# DNA 1: CAATCTGAATTCCGGTCTCCC
# DNA 2: TGGTGGCTACGACGGGATT
# B30: AUCACGA (DNA:RNA)
# RNA: B2 RNA with G26U, U27C, G29C, G31A
# DNA 1: CAATCTGAATTCCGGTCTCCC
# DNA 2: TGGTGGCTACGACGGGATT
# B31: AAUCACU (DNA:RNA)
# RNA: B1 RNA with G25A, A27U, U28C, C29A
# DNA 1: CAATCTGAATTCCGGTCTCCC
# DNA 2: TGGTGGCTACGACGGGATT
# Molecular target: T1, RBFOX1 RRM (Homo sapiens, UniProt Q9NWB1 109-208)
# T1 sequence: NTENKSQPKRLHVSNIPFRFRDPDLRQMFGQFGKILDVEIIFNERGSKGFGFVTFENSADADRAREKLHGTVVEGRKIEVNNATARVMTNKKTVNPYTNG
# Test: EMSA; HiTS-Eq, 1 nM pool, 10 min; buffer printed only for the single-RNA assays: 10 mM Tris pH 7.5, 150 mM NaCl, 3.4 mM EDTA, 0.001% NP-40, 30 C
# Conditions: tags: His6 N-terminal (pET28a); label: 5' 32P
# Summary of the method: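 Purified RbFox RRM, wild type or mutant, was incubated for 10 min in 50 µL with 1 nM of a 5′-radiolabelled RNA pool carrying 7 randomized nucleotides, whose flanks were annealed to DNA oligonucleotides, over a series of increasing protein concentrations. Unbound RNA was resolved on 8% native PAGE, cut out, reverse-transcribed, barcoded by PCR and sequenced on an Illumina HiSeq 2500. Relative association constants were derived from changes in read counts for each RNA species versus the control reaction and normalised to the cognate motif.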
row,Binder,binding signal
1,B1,0.00613 KA relative to UGCAUGU
2,B2,0.00647 KA relative to UGCAUGU
3,B3,0.000307 KA relative to UGCAUGU
4,B4,0.00636 KA relative to UGCAUGU
5,B5,0.0022 KA relative to UGCAUGU
6,B6,0.0234 KA relative to UGCAUGU
7,B7,0.00695 KA relative to UGCAUGU
8,B8,0.00024 KA relative to UGCAUGU
9,B9,0.0204 KA relative to UGCAUGU
10,B10,0.0217 KA relative to UGCAUGU
11,B11,0.0123 KA relative to UGCAUGU
12,B12,0.0237 KA relative to UGCAUGU
13,B13,0.0114 KA relative to UGCAUGU
14,B14,0.011 KA relative to UGCAUGU
15,B15,0.0111 KA relative to UGCAUGU
16,B16,0.00787 KA relative to UGCAUGU

row,Binder,binding signal
1,B17,0.0136 KA relative to UGCAUGU
2,B18,0.00437 KA relative to UGCAUGU
3,B19,0.00835 KA relative to UGCAUGU
4,B20,0.00992 KA relative to UGCAUGU
5,B21,0.013 KA relative to UGCAUGU
6,B22,0.00902 KA relative to UGCAUGU
7,B23,0.00793 KA relative to UGCAUGU
8,B24,0.0233 KA relative to UGCAUGU
9,B25,0.0116 KA relative to UGCAUGU
10,B26,0.00575 KA relative to UGCAUGU
11,B27,0.00134 KA relative to UGCAUGU
12,B28,0.00699 KA relative to UGCAUGU
13,B29,0.00171 KA relative to UGCAUGU
14,B30,0.00363 KA relative to UGCAUGU
15,B31,0.00301 KA relative to UGCAUGU
